Measurements published in PubChem BioAssay AID1671193 (National Center for Advancing Translational Sciences (NCATS), 2021).
Where “and” joins values, the source holds several entries; their conditions need not be identical. Equal entries are not always repeated. Out of some 150,000 compounds screened, about 180 (0.12%) were called active. Inconclusive results, whose numbers are uncertain, are shown with a selection of clear calls. The call rests on the fitted dose curve; in most records, active means well fitted cell-killing curve with a large enough effect; inconclusive means small, poorly fitted or top-dose-only effect, or effect the other way; inactive means flat fitted curve, though single readings scatter. A potency beside an inconclusive call is a rough fit, not a confirmed value.
Potency means the concentration at half of the fitted maximal effect; tags describe the fitted curve by direction and shape.

Experiment: GF-AFC viability counterscreen for inhibitors of alpha-synuclein gene (SNCA) expression; further: nearly all actives have a fitted effect of over 30% in size;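 on activity change, negative = cytotoxicity: 0% = DMSO-treated cells and -100% = medium-only wells without cells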
Conditions: HEK-293-SNCA-luc viability, GF-AFC fluorescence, 24 h; activity change, negative = cytotoxicity: at 57.1 µM (top of the series) unless noted
Method in brief: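 Cytotoxicity counterscreen: after 24 h compound treatment of genome-edited SNCA-luciferase HEK-293 cells, live-cell protease substrate GF-AFC read by fluorescence after 30 min; activity scaled between DMSO (0%) and medium-only (-100%), curves Hill-fitted.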
For CNC(=O)CCn1ncc2cc(OC3CCc4cccc(-c5cccc(OC)c5)c43)ccc21 (centres undefined), the Potency was inconclusive: 20 µM [cytotoxic, partial curve, poor fit].
With CC(C)Cn1c(CNC(=O)OC(C)(C)C)nc2cccnc21 the Potency was “inactive”.
In the case of Cc1ccc(-c2ccccc2CN2CCC(C(=O)N3CCN(c4ncccn4)CC3)CC2)cc1Cl, the Potency is reported as “inactive”.
In the case of O=C(Cc1ccc(F)cc1)N1CCC2(CC1)CCN(CCc1ccccc1)c1ccccc1O2, the Potency is reported as “inactive”.
In the case of COc1ccc(C(=O)N(Cc2cc(OC)c(OC)c(OC)c2)CC2CCCO2)cc1 (centres undefined), the Potency is reported as inconclusive: 22.4 µM [cytotoxic, partial curve, poor fit].
With CN1CC(=O)N(c2ccccc2F)Cc2c(NC3CCNCC3)ncnc21 the Potency was “inactive”.
With Cc1cccc(-c2cccc(CN3CCC(NC(=O)NC4CCCC4)CC3)c2)c1 the Potency was inconclusive: 1.58 µM [cytotoxic, full curve].
For Cc1ccccc1OCCn1c(CCNC(=O)C(C)(C)C)nc2ccccc21, the Potency was inconclusive: 25.1 µM [cytotoxic, single point].
With Cc1cccc(-c2noc(-c3nnn4c3COC(c3ccc(F)cc3)C4)n2)c1 (centres undefined) the Potency was inconclusive: 39.8 µM [rising, single point].
In the case of COc1ccc(N2CCN(C(=O)c3nc(SC)ncc3Cl)CC2)cc1, the Potency is reported as “inactive”.
For CCn1cc(CN2CCCC23CCN(c2cc(C)nc4ccccc24)CC3)c(C)n1, the Potency was inconclusive: 25.1 µM [cytotoxic, single point].
For Cc1nnc(NS(=O)(=O)c2ccc(N)cc2)s1, the activity change, negative = cytotoxicity was inconclusive: 99.2% [at 23.9 µM].
In the case of Cc1ccc(C(=O)NCC(c2cccs2)S(=O)(=O)c2cccs2)cc1 (centres undefined), the Potency is reported as inconclusive: 15.8 µM [cytotoxic, partial curve, poor fit].
In the case of COc1ccccc1/C=C/c1nc(C#N)c(N(C)C)o1, the Potency is reported as inconclusive: 28.2 µM [rising, partial curve, poor fit].
With FC(F)c1nc2ccccc2n1-c1nc(N2CCOCC2)nc(N2CCOCC2)n1 the Potency was inconclusive: 85.7 nM [cytotoxic, full curve, poor fit] and inconclusive: 1.19 µM [cytotoxic, full curve].
For CCOc1ccc(-c2ccnc(NC[C@@H]3CCCO3)n2)cc1C(=O)O, the Potency was “inactive”.
For O=C(NC1CCCC1)c1ccc(-c2ccc(N3CCCCC3)nc2)cc1, the Potency was “inactive”.
With O=C(c1ccccn1)N1CC(Oc2ccc(-c3noc(C4CC4)n3)cc2)C1 the Potency was inconclusive: 39.8 µM [cytotoxic, single point].
In the case of Cc1ccc(Nc2c(-c3ccc(N4CCOCC4)cc3)nc3ncccn23)cc1, the Potency is reported as “inactive”.
